Data on 26 compounds can be found in the antibiotic and cytotoxicity screens of Wong et al. (2023).

The list shows a part of the results.

One experiment deals with HSkMC. The experiment can be described thus: cytotoxicity call (relative viability < 0.9). Conditions: 10 µM.
The subject of the next experiment is HepG2. The experiment can be described thus: cytotoxicity call (relative viability < 0.9). Particulars: 10 µM.
For the next experiment, the system named is S. aureus RN4220. The experiment can be described thus: growth inhibition call (relative growth <= 0.2). Particulars: 50 µM.

As to `C[C@]12C=C[C@]3(CN(C4CC4)C(=O)C3[C@@H]1C(=O)O)O2` (stereo partly drawn), the cytotoxicity call with HSkMC and with HepG2 was “inactive” throughout. In the experiment with S. aureus RN4220, the growth inhibition call is “inactive”.

On to `CCS(=O)(=O)N1C[C@]2(C1)CN([C@@H](CO)c1c2c2ccc(cc2n1C)OC)C(=O)Nc1c(noc1C)C`, for which the cytotoxicity call in the experiment with HSkMC and in the experiment with HepG2 was “inactive” throughout. Also, the growth inhibition call in the experiment with S. aureus RN4220 is “inactive”.

With `Cc1noc(C)c1S(=O)(=O)Nc1cccc2c1O[C@@H](CN(C)CC1CC1)[C@@H](C)CN([C@H](C)CO)C2=O`, the cytotoxicity call with HSkMC and in the experiment on HepG2 was “inactive” each time. Moreover, the growth inhibition call with S. aureus RN4220 was “inactive”.

As for `COc1cccc(NC(=O)N(C)C[C@H]2Oc3cc(C#CC4(O)CCCC4)ccc3S(=O)(=O)N([C@@H](C)CO)C[C@H]2C)c1`, the cytotoxicity call with HSkMC and with HepG2 was “inactive” in each case. In the experiment on S. aureus RN4220, the growth inhibition call was “inactive”.

`COCCNC(=O)C[C@@H]1CC[C@@H]2[C@H](COC[C@H](O)CN2S(=O)(=O)c2ccccc2C)O1`: the cytotoxicity call with HSkMC and with HepG2 was “inactive” throughout. Also, the growth inhibition call in the experiment with S. aureus RN4220 was “inactive”.

For the compound `C[C@H]1CCCCO[C@@H](CN(C)C(=O)Nc2cccc3ccccc23)[C@@H](C)CN([C@@H](C)CO)C(=O)c2cc(NS(=O)(=O)c3cccs3)ccc2O1`, the cytotoxicity call with HSkMC and with HepG2 was “inactive” in each case. Also, the growth inhibition call with S. aureus RN4220 is “inactive”.

On to `CN1C(=O)c2cc(NC(=O)c3cnccn3)ccc2OC[C@@H]2O[C@H](CC(=O)N[C@H]3CCN(Cc4ccccc4)C3)CC[C@@H]21`, for which the cytotoxicity call with HSkMC and in the experiment with HepG2 was “inactive” in each case. The growth inhibition call in the experiment on S. aureus RN4220 was “inactive”.

With `C[C@@H]1CN([C@@H](C)CO)C(=O)c2c(c3ccccc3n2C)-c2ccccc2CO[C@H]1CN(C)C(=O)Nc1cccc(F)c1`, the cytotoxicity call in the experiment on HSkMC and in the experiment on HepG2 was “inactive” throughout. For the same compound, in the experiment on S. aureus RN4220, the growth inhibition call is “inactive”.

As for `C[C@H](CO)N1C[C@H](C)[C@H](CN(C)C(=O)Nc2cccc3ccccc23)Oc2ncc(C#Cc3ccc(F)cc3)cc2C1=O`, the cytotoxicity call with HSkMC and with HepG2 was “inactive” each time. Besides, in the experiment with S. aureus RN4220, the growth inhibition call is “inactive”.

Take `CC(C)(C)c1cccc(CN)c1`: the cytotoxicity call with HSkMC and with HepG2 was “inactive” in each case. For the same compound, the growth inhibition call in the experiment on S. aureus RN4220 was “inactive”.

For the compound `Cc1ccc(S(=O)(=O)N(C)C[C@H]2OCCCC[C@@H](C)Oc3ccc(NC(=O)Nc4ccc(C(F)(F)F)cc4)cc3C(=O)N([C@@H](C)CO)C[C@@H]2C)cc1`, in the experiment on HSkMC, the cytotoxicity call was “inactive”. In addition, the cytotoxicity call with HepG2 is “active”. Further, in the experiment on S. aureus RN4220, the growth inhibition call is “inactive”.

In the case of `COc1ccc(NC(=O)Nc2cccc3c2O[C@H](CN(C)C(=O)Nc2ccc(C(F)(F)F)cc2)[C@H](C)CN([C@H](C)CO)C3=O)cc1`, the cytotoxicity call in the experiment on HSkMC and with HepG2 was “inactive” in each case. In addition, the growth inhibition call in the experiment on S. aureus RN4220 is “inactive”.

As to `COCC#Cc1cnc2c(c1)C(=O)N([C@H](C)CO)C[C@H](C)[C@H](CN(C)C(=O)CCN1CCCCC1)O2`, the cytotoxicity call with HSkMC and in the experiment on HepG2 was “inactive” in each case. Further, the growth inhibition call in the experiment with S. aureus RN4220 is “inactive”.

For the compound `C[C@@H]1CN([C@H](C)CO)C(=O)c2cc(NC(=O)Nc3cccc4ccccc34)ccc2O[C@@H](C)CCCCO[C@@H]1CN(C)C(=O)C1CCCCC1`, the cytotoxicity call in the experiment with HSkMC and in the experiment on HepG2 was “inactive” each time. Moreover, in the experiment with S. aureus RN4220, the growth inhibition call was “inactive”.

Turning to `Cn1c([C@H]2C=C(C(=O)N3CCOCCOCCOCCOCC3)O[C@@H](OCCCCO)C2)cc(=O)n1-c1ccccc1`, the cytotoxicity call in the experiment on HSkMC and with HepG2 was “inactive” in each case. Further, the growth inhibition call in the experiment with S. aureus RN4220 is “inactive”.

Turning to `C1CCN=C(NC2CCCCC2)CC1`, the cytotoxicity call in the experiment on HSkMC and with HepG2 was “inactive” in each case. Also, in the experiment on S. aureus RN4220, the growth inhibition call was “inactive”.

Regarding `C[C@@H](C(=O)N(C)C[C@H]1OCc2ccccc2-c2c(n(C)c3ccccc23)C(=O)N([C@@H](C)CO)C[C@@H]1C)c1ccccc1`, the cytotoxicity call with HSkMC and in the experiment with HepG2 was “inactive” each time. Moreover, the growth inhibition call with S. aureus RN4220 is “inactive”.

For the compound `C[C@@H]1CN([C@H](C)CO)C(=O)Cc2cc(NC(=O)Nc3ccc(C(F)(F)F)cc3)ccc2O[C@H]1CN(C)Cc1ccc(C(=O)Nc2ccccc2N)cc1`, the cytotoxicity call in the experiment on HSkMC and in the experiment with HepG2 was “inactive” in each case. The growth inhibition call with S. aureus RN4220 was “inactive”.

As for `COc1ccc(NC(=O)Nc2ccc3c(c2)C(=O)N([C@@H](C)CO)C[C@@H](C)[C@@H](CN(C)CC2CC2)OCCCC[C@@H](C)O3)cc1`, the cytotoxicity call in the experiment on HSkMC and in the experiment with HepG2 was “inactive” throughout. Besides, the growth inhibition call in the experiment on S. aureus RN4220 is “inactive”.

For `O=C(NC[C@H]1CCCO1)c1ccc(/C=N/O)nc1`, the cytotoxicity call in the experiment with HSkMC and in the experiment with HepG2 was “inactive” each time. Further, the growth inhibition call in the experiment on S. aureus RN4220 is “inactive”.

In the case of `COc1ccc(CN(C)C[C@H]2Oc3c(NC(=O)c4cnccn4)cccc3C(=O)N([C@@H](C)CO)C[C@@H]2C)cc1`, the cytotoxicity call with HSkMC and with HepG2 was “inactive” each time. The growth inhibition call in the experiment with S. aureus RN4220 was “inactive”.

Turning to `CC(C)NC(=O)Nc1ccc2c(c1)CC(=O)N([C@H](C)CO)C[C@H](C)[C@H](CN(C)S(=O)(=O)c1cccs1)O2`, the cytotoxicity call with HSkMC and with HepG2 was “inactive” each time. In addition, the growth inhibition call with S. aureus RN4220 is “inactive”.

As to `Nc1ccc(CO)cn1`, the cytotoxicity call with HSkMC and with HepG2 was “inactive” each time. In addition, in the experiment on S. aureus RN4220, the growth inhibition call is “inactive”.

For `CC(C)(C)[C@H]1COC(=O)[C@@H](NC(=O)OCC2c3ccccc3-c3ccccc32)CC=CC[C@@H](CC(=O)N[C@H](CO)Cc2ccccc2)C(=O)N1`, the cytotoxicity call in the experiment with HSkMC and in the experiment with HepG2 was “inactive” throughout. For the same compound, the growth inhibition call in the experiment with S. aureus RN4220 is “inactive”.

On to `C[C@H]1CN([C@@H](C)CO)C(=O)Cc2cc(NS(C)(=O)=O)ccc2O[C@@H]1CN(C)C`, for which the cytotoxicity call in the experiment with HSkMC and in the experiment on HepG2 was “inactive” each time. Besides, the growth inhibition call with S. aureus RN4220 is “inactive”.

Regarding `C[C@H]1CN([C@@H](C)CO)C(=O)c2c(c3ccccc3n2C)-c2ccccc2CO[C@@H]1CN(C)Cc1ccc(C(F)(F)F)cc1`, the cytotoxicity call in the experiment on HSkMC (human skeletal muscle cells) and with HepG2 was “inactive” each time. The growth inhibition call in the experiment on S. aureus RN4220 is “inactive”.
